In PubChem BioAssay AID488969 (Vanderbilt High Throughput Screening Facility, 2010) one finds z-score data, which are given here for 112 compounds.

Structures are written as SMILES. Whole data set: some 110,000 compounds, median “z-score” near -0.1, cut for the highest 2% near 2. The list shows a part of the results. The source made the active and inactive calls.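 How the source made its calls: active means z-score in the third read window above 3 or below -3; inactive means the rest.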

The assay addresses Metabotropic glutamate receptor 8 (Rattus norvegicus) (UniProt P70579). Briefly: mGluR8 Gi/Go-coupled signaling modulation – cell-based, rat, thallium flux, HTS, primary screen (AID 488969). Conditions: HEK293 rat mGluR8, GIRK (G protein-gated inwardly rectifying potassium channel) thallium flux, FluoZin2; at 10 µM; stronger effect = higher value; submaximal glutamate (EC20) added with thallium.
Chain of UniProt P70579 (P70579 whole entry, looked up): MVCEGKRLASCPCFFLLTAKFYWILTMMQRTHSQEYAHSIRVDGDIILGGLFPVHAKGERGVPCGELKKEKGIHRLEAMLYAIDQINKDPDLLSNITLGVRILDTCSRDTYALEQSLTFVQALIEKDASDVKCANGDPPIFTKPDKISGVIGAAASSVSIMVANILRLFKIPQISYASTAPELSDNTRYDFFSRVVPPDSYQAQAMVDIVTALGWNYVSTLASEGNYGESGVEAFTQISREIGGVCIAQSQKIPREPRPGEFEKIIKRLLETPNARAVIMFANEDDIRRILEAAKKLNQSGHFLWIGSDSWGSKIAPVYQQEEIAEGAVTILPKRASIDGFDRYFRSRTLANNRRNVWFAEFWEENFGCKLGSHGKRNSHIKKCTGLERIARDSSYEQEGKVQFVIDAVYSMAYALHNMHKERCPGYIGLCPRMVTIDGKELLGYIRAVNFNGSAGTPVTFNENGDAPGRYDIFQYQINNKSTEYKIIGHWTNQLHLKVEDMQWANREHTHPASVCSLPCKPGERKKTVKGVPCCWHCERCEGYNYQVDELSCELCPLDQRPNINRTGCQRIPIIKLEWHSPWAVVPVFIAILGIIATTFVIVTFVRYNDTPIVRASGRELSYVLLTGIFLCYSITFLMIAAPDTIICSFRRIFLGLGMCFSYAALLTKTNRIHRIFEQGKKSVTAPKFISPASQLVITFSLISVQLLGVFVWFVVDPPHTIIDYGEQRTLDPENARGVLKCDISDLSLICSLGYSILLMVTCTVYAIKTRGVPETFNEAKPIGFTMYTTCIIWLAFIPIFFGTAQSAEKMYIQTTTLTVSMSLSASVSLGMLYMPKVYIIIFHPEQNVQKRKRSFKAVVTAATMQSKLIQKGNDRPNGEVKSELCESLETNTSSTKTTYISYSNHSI
`C/C=N/NC(=O)c1cc(Br)ccc1O`: the z-score was -0.0515.
Next, `CS(=O)(=O)NCc1ccc(C(=O)NCCOc2ccccc2)cc1`: 0.0505; `O=C(N/N=C/c1ccccn1)c1ccc(Br)o1`: -0.0401; `COc1ccc(/C=C2\CCC(C3CCCC3)C2=O)cc1Cn1cccn1` (configuration not stated): -0.0698.
The value for `Cc1nn2c(=O)c(NC(=O)c3ccc(F)cc3)cnc2s1` was -0.186; that for `CCOC(=O)C1CSc2[nH]c(=O)sc2C1c1ccccc1` (configuration not stated) was -0.412; that for `CC1CN(C(=O)c2ccc(COCC(F)(F)F)o2)CC(C)O1` (configuration not stated) was -0.415.
Turning to `c1ccc(CSc2ncnc3c2oc2ccccc23)cc1`, the z-score is -0.0438.
Next, `COc1ccc(N(C)S(=O)(=O)c2c(C)[nH]c(=O)[nH]c2=O)cc1`: 0.02.
The value for `Cc1cccc(N/N=C2/COC(C)(C)CC2=O)c1` was -0.253; that for `COc1ccccc1NS(=O)(=O)c1cccc(C(=O)NN)c1` was 0.0093.
The value for `Cc1ccc(NC(=S)NNC(=O)CSc2nnc(-c3ccc(Cl)cc3)n2C2CCCCC2)cc1` was 0.656; that for `CCOC(=O)N1CCN(C(=S)Nc2cccc(C)c2)CC1` was -0.15.
Regarding `O=C(NCCCN1CCOCC1)c1cc(-c2ccc3c(c2)OCO3)nc2ccccc12`, the z-score stood at 0.143.
The value for `COC(=O)CN1C(=S)N(c2ccc(Cl)cc2)C(=O)C1CC(=O)Nc1ccc(F)cc1` (configuration not stated) was -0.000325; that for `COCCNS(=O)(=O)c1cc(Br)ccc1OC` was -0.824; that for `O=C(Cn1c(-c2cncs2)nc2ccccc21)NC1CCCC1` was -0.104.
The value for `O=S(CC1CC1(Cl)Cl)CC1CC1(Cl)Cl` (configuration not stated) was 0.433; that for `O=C(NCc1ccc2c(c1)OCO2)C12CC3CC(CC(C3)C1)C2` was -0.186; that for `CCN(c1cccc(C(F)(F)F)c1)S(=O)(=O)c1ccc2c(c1)CCN2C(C)=O` was 0.212.
`Cc1cnc(C(=O)Nc2ccc(N3CCOCC3)cc2)cn1` showed a z-score of 0.504.
Next, `C=CCn1c(-c2ccc(OC)c(OC)c2)n[nH]c1=S`: -0.372; `O=C(NCc1ccco1)c1ccc2c(=O)n(-c3ccccc3)c(=S)[nH]c2c1`: 0.0493.
Turning to `COC(=O)Cc1ccc(NC(=O)c2ccc(C(C)(C)C)cc2)cc1`, the z-score was -0.0938.
The compound `COc1ccc(S(=O)(=O)N2CCN(C)CC2)cc1C` showed a z-score of 0.151.
Next, `COc1ccc(N=C2C(=Nc3ccc(OC)cc3)N(c3ccc(N(C)C)cc3)C(=S)N2c2ccc(OC)cc2)cc1`: -0.108.
The value for `CCOC(=O)CSc1snnc1C` was 0.0387; that for `CCOC(=O)c1cnc(-n2nc(C)cc2C)nc1N(C)C` was -0.262; that for `Cc1cc(C(=O)NCC(=O)OCC(=O)N2CCCCCC2)ccc1[N+](=O)[O-]` was -0.275.
Next, `CCOCCn1c(CN2CCN(c3ccc(F)cc3)CC2)nc2c1c(=O)n(C)c(=O)n2C`: 0.371; `Cc1ccc(S(=O)(=O)N2CCC(C(=O)NCCN3CCCCCC3)CC2)cc1`: 0.917.
In the case of `Clc1cc(Sc2ccc(Br)cc2)nnc1-c1ccccc1`, the z-score is -0.683.
For the compound `O=C(CSc1nc(-c2ccco2)cc(C(F)(F)F)n1)Nc1ccc2c(c1)CCC2`, the z-score was -0.138.
As to `CCOc1cc(NC(=S)NCC2CCCO2)c(OCC)cc1NC(=O)c1ccc(C)cc1` (configuration not stated), the z-score is -0.0803.
As to `CC(C)=CC(=O)NCCc1ccccc1`, the z-score is -0.064.
In turn, `O=C(c1ccco1)N1CCN(CC(=O)N2CCCc3c2c(=O)oc2ccc(O)cc32)CC1` gave a z-score of 0.248.
The value for `CCOc1ccccc1OCC(=O)NN1Cc2ccccc2C1=N` was -0.00532; that for `Cc1nn(-c2ccccc2)c(C)c1/C=N/NC(=O)c1cc(-c2ccc(Br)s2)[nH]n1` was -1.6.
Regarding `CCC(=O)c1ccc(N2CCN(C(=O)COc3ccc(F)cc3)CC2)c(F)c1`, the z-score stood at 0.561.
Next, `CCOC(=O)c1cccc(NC(=O)C2CCN(S(=O)(=O)c3cccs3)CC2)c1`: -2.13; `O=C(CSc1nc2cc([N+](=O)[O-])ccc2n1-c1ccccc1)NCc1ccc2c(c1)OCO2`: -0.153; `CN(C)c1ccc(NC(=S)N(CCc2ccccc2)C2CC(=O)N(c3c(Cl)cccc3Cl)C2=O)cc1` (configuration not stated): 0.0623.
Next, `O=C1NC2=C(CCc3ccccc32)C(c2ccc(Br)cc2)N1` (configuration not stated): -1.97; `Cc1ccc([C@@H]2C3COCC=C3C(C#N)=C(N)C2(C#N)C#N)o1` (some centres not stated): -0.744.
As for `Nc1nc2nonc2nc1N1CCCCC1`, the z-score was -0.205.
The value for `Cc1ccc(Oc2ccc(C(=O)NC3CCSC3=O)cn2)cc1` (configuration not stated) was 0.0747; that for `CCOc1ccc(NC(=O)C(=O)NCCCn2ccnc2)cc1` was 0.096; that for `CN1C(=O)c2ccccc2N(C)C1c1ccc2c(c1)OCO2` (configuration not stated) was -0.718.
Turning to `COc1ccc(Cn2ccnc2)cc1Br`, the z-score is -0.0251.
Compound `COCCn1c(C)cc(C2=NNC(=Nc3ccc(F)cc3)SC2)c1C` came in with a z-score of 0.377.
The value for `CCN(CC)S(=O)(=O)c1ccc(C2=NOC3(C2)N(C)c2ccccc2C3(C)C)cc1` (configuration not stated) was -0.169; that for `O=C(COC(=O)c1cc(=O)[nH]c2ccccc12)Nc1nc(-c2cccc(Br)c2)cs1` was 0.00537; that for `CN(c1cccc(NC(=O)CSc2ccc(Cl)cc2)c1)S(C)(=O)=O` was 0.0636.
The value for `Cc1cc(C(=O)CSc2nnc(C3COc4ccccc4O3)n2C)c(C)n1-c1ccc(F)cc1` (configuration not stated) was 0.31.
Next, `O=C(CSc1ccccn1)Nc1cccc(NC(=O)CSc2ccccn2)n1`: -0.186; `COCCCn1c(=O)c2ccccc2c2ccccc2c1=O`: 0.651.
For the compound `CNC(=O)COC(=O)c1ccc(-c2nc3ccccc3s2)s1`, the z-score is -0.18.
For the compound `CC(CCc1ccccc1)NC(=O)c1cccs1` (configuration not stated), the z-score was -0.437.
Turning to `Cc1nc2sc3c(c2c2nnc(SCC(=O)NCc4ccco4)n12)CCCC3`, the z-score was -0.469.
Next, `Cc1ccc(NCN2C(=O)C3C4CCC(C4)C3C2=O)cc1` (configuration not stated): 1.54; `Cc1cccc(C)c1NC(=O)c1cccc(COc2cc(Cl)ccc2Cl)c1`: 0.157.
The value for `Cc1nc2ccc(S(=O)(=O)NC(CC(C)C)C(=O)O)cc2s1` (configuration not stated) was 0.62; that for `CCOc1nc(-c2ccc(OC)cc2)ccc1-c1noc(-c2cc(OC)c(OC)c(OC)c2)n1` was -0.00199; that for `CCOC(=S)SCC(=O)Nc1nc(-c2ccc(Br)cc2)cs1` was 0.0099.
The value for `CCOc1nc(N(C)C)nc(-n2nnc(C(C)=O)c2C)n1` was -0.22; that for `CCC(NC(=O)NCc1ccccc1)(C(F)(F)F)C(F)(F)F` was 0.361; that for `CC1=C(C(=O)OCCOC(C)C)C(c2cccnc2)C2=C(CCCC2=O)N1` (configuration not stated) was 0.00765.
Compound `C=CCC(CC=C)(C(=O)O)c1ccccc1` had a z-score of 0.46.
Next, `O=C1CC(NCc2ccncc2)C(=O)N1c1ccccc1` (configuration not stated): -0.442; `CCn1c(-c2ccc(-c3ccccc3)cc2)c[nH]c1=S`: active: 3.86; `CCOC(=O)N/N=C/c1ccccc1F`: 0.544.
The value for `CS(=O)(=O)N1CCN(CC2CC3C=CC2C3)CC1` (configuration not stated) was -0.21; that for `COc1ccc(OC)c2c1CCC2=O` was -0.492; that for `Cc1ccc(NC(=O)/C=C\C(=O)O)c([N+](=O)[O-])c1` was -0.264.
As for `CC(C)NC(=O)CCS(=O)(=O)c1cccc2nonc12`, the z-score is -0.265.
Next, `O=C(CCc1ccccc1)Nc1ccccc1[N+](=O)[O-]`: 0.126.
In turn, `Cc1[nH]n(-c2ccc([N+](=O)[O-])cc2)c(=O)c1C=NCCN1CCN(C(=O)c2ccc(Br)cc2)CC1` showed a z-score of 0.0353.
Consider `C=CCn1c(SCC(=O)c2ccc(OC)cc2)nnc1C(C)NC(=O)c1cccs1` (configuration not stated), for which the z-score was -0.694.
`CC(=O)c1cn(CC(=O)Nc2c(C)cccc2C)c2ccccc12` registered a z-score of 0.782.
The value for `COc1ccccc1/C=C(\NC(=O)c1ccc(OC)c(OC)c1)C(=O)Nc1cccc([N+](=O)[O-])c1` was -0.431; that for `CCOC(=O)c1c2n(c3c(NCc4ccccc4)ncnc13)CCCC2` was active: -4.53.
Turning to `CCOC(=O)CC1C(=O)NCCN1C(=O)Nc1ccccc1` (configuration not stated), the z-score was -0.19.
In the case of `CCn1c(SCC(=O)c2ccc3ccccc3c2)nnc1-c1cccs1`, the z-score was -0.549.
In the case of `COc1ccccc1-n1c2c(cc(C(=O)N3CCC(C)CC3)c1=O)C(=O)CC(C)(C)C2`, the z-score was -0.717.
For the compound `Cc1cc(=O)n(C)c(=O)n1CCCCCCOc1cccc([N+](=O)[O-])c1`, the z-score is -0.884.
Consider `COc1ccccc1N/C(=N/c1nc(C)cc(C)n1)NC(C)=O`, for which the z-score was -0.38.
In the case of `CCc1ccc2c(c1)C1(C(=O)N2)N2CCCC2C(C(=O)c2ccc3ccccc3c2)C12C(=O)Nc1ccccc12` (configuration not stated), the z-score was -0.276.
The compound `CC(C)(C)c1nn(-c2ccccc2)c2[nH]c(=O)c(CNc3ccc4c(c3)OCCO4)cc12` displayed a z-score of 0.265.
As for `O=[N+]([O-])c1ccc(N/N=C2/CCCCC2c2ccccn2)cc1` (configuration not stated), the z-score was -0.622.
The value for `O=C(CSc1nnc(CNc2ccc(F)cc2)n1CC1CCCO1)Nc1ccccc1` (configuration not stated) was -0.477; that for `CCOC(=O)C1CCN(C(c2cccnc2)c2c(NC(=O)c3ccco3)sc(C)c2C)CC1` (configuration not stated) was 0.363; that for `CC(=O)Nc1cccc(Oc2cnc3ccccc3n2)c1` was -0.0332.
Next, `CCn1c(CCCNC(=O)c2cccs2)nc2ccccc21`: 1.57; `CCOC(=O)c1cncc(C(=O)O)c1`: 1.8.
Take `Cc1cc(NC(=O)CCC(=O)N(CC(=O)NC2CCCC2)Cc2ccc(F)cc2)no1`: the z-score was -0.327.
Next, `COc1ccc(-c2cc3ccccc3oc2=O)cc1NC(=O)c1cccnc1`: -0.208.
In turn, `CCOC(=O)c1ccc(CSc2ncn[nH]2)o1` came in with a z-score of 0.192.
Consider `COc1cc(Br)c(CCNC(=O)Cc2ccccc2)cc1OC`, for which the z-score is -0.198.
The value for `Cc1cc(NS(=O)(=O)c2ccccc2)n(-c2ccccc2)n1` was 0.432; that for `Cc1ccc(CNC(=O)C(=O)NCCCn2ccnc2)cc1` was -0.281; that for `Cc1[nH]c2ccccc2c1CN1CCc2ccccc2C1` was active: 3.72.
With `CN1CCN(NC(=O)CN2C(=O)/C(=C/c3ccccc3F)SC2=S)CC1`, the z-score was found to be 0.269.
In the case of `O=C1N[C@@H](Cc2ccccc2)C(=O)N1CCN1CCOCC1`, the z-score is -0.283.
`O=C(Nc1ccc2nsnc2c1)N1CCCCC1`: the z-score amounted to 0.0225.
The value for `CCOC(=O)CSc1nnc(CSc2nc(C)cc(C)n2)n1Cc1ccco1` was -0.181; that for `Oc1ccccc1/C=N/Nc1cccc2cccnc12` was -0.0637; that for `Cc1cc(C)n(-c2nc(-c3cccc(Cl)c3)cs2)n1` was -0.396.
The value for `O=C(C1=C(O)C(=O)N(CCCN2CCOCC2)C1c1ccccn1)c1cc2ccccc2o1` (configuration not stated) was 0.0916.
Take `CSCCC(NC(=O)COc1ccccc1)C(=O)Nc1ccc(C)cc1` (configuration not stated): the z-score is 0.00859.
The value for `CC(=O)Nc1c(C(=O)N2CCCCCC2)cnn1-c1ccccc1Cl` was -0.0887; that for `COc1ccc(NC(=O)c2cccc(Cn3cc(Br)cn3)c2)cn1` was -0.191; that for `CCOC(=O)c1sc(NC(=O)Nc2ccccc2F)nc1C` was -0.263.
